{"source": "paper PMC9911399", "about": "“Two distinct binding modes provide the RNA-binding protein RbFox with extraordinary sequence specificity”", "binders": {"B1": {"name": "GUUUUGA (DNA:RNA)", "RNA": "GGGAGACCGGAAUUCAGAUUGUCCGUUUUGAUUAAAUCCCGUCGUAGCCACCA", "DNA 1": "CAATCTGAATTCCGGTCTCCC", "DNA 2": "TGGTGGCTACGACGGGATT"}, "B2": {"name": "GUUAAGC (DNA:RNA)", "RNA": "B1 RNA with U28A, U29A, A31C", "DNA 1": "CAATCTGAATTCCGGTCTCCC", "DNA 2": "TGGTGGCTACGACGGGATT"}, "B3": {"name": "UUAACUA (DNA:RNA)", "RNA": "B1 RNA with G25U, U27A, U28A, U29C, G30U", "DNA 1": "CAATCTGAATTCCGGTCTCCC", "DNA 2": "TGGTGGCTACGACGGGATT"}, "B4": {"name": "AGAGUCC (DNA:RNA)", "RNA": "B1 RNA with G25A, U26G, U27A, U28G, G30C, A31C", "DNA 1": "CAATCTGAATTCCGGTCTCCC", "DNA 2": "TGGTGGCTACGACGGGATT"}, "B5": {"name": "AGCGACU (DNA:RNA)", "RNA": "GGGAGACCGGAAUUCAGAUUGUCCAGCGACUUUAAAUCCCGUCGUAGCCACCA", "DNA 1": "CAATCTGAATTCCGGTCTCCC", "DNA 2": "TGGTGGCTACGACGGGATT"}, "B6": {"name": "AUCCUAC (DNA:RNA)", "RNA": "B5 RNA with G26U, G28C, A29U, C30A, U31C", "DNA 1": "CAATCTGAATTCCGGTCTCCC", "DNA 2": "TGGTGGCTACGACGGGATT"}, "B7": {"name": "GCGACAA (DNA:RNA)", "RNA": "B1 RNA with U26C, U27G, U28A, U29C, G30A", "DNA 1": "CAATCTGAATTCCGGTCTCCC", "DNA 2": "TGGTGGCTACGACGGGATT"}, "B8": {"name": "UUUUGCU (DNA:RNA)", "RNA": "B1 RNA with G25U, U29G, G30C, A31U", "DNA 1": "CAATCTGAATTCCGGTCTCCC", "DNA 2": "TGGTGGCTACGACGGGATT"}, "B9": {"name": "UACGCGC (DNA:RNA)", "RNA": "B5 RNA with A25U, G26A, A29C, C30G, U31C", "DNA 1": "CAATCTGAATTCCGGTCTCCC", "DNA 2": "TGGTGGCTACGACGGGATT"}, "B10": {"name": "CGUGGCA (DNA:RNA)", "RNA": "B5 RNA with A25C, C27U, A29G, U31A", "DNA 1": "CAATCTGAATTCCGGTCTCCC", "DNA 2": "TGGTGGCTACGACGGGATT"}, "B11": {"name": "AAGUGGG (DNA:RNA)", "RNA": "B1 RNA with G25A, U26A, U27G, U29G, A31G", "DNA 1": "CAATCTGAATTCCGGTCTCCC", "DNA 2": "TGGTGGCTACGACGGGATT"}, "B12": {"name": "UAAACCU (DNA:RNA)", "RNA": "B5 RNA with A25U, G26A, C27A, G28A, A29C", "DNA 1": "CAATCTGAATTCCGGTCTCCC", "DNA 2": "TGGTGGCTACGACGGGATT"}, "B13": {"name": "GCGUUGU (DNA:RNA)", "RNA": "B1 RNA with U26C, U27G, A31U", "DNA 1": "CAATCTGAATTCCGGTCTCCC", "DNA 2": "TGGTGGCTACGACGGGATT"}, "B14": {"name": "GACGCAU (DNA:RNA)", "RNA": "B5 RNA with A25G, G26A, A29C, C30A", "DNA 1": "CAATCTGAATTCCGGTCTCCC", "DNA 2": "TGGTGGCTACGACGGGATT"}, "B15": {"name": "GACAAUC (DNA:RNA)", "RNA": "B5 RNA with A25G, G26A, G28A, C30U, U31C", "DNA 1": "CAATCTGAATTCCGGTCTCCC", "DNA 2": "TGGTGGCTACGACGGGATT"}, "B16": {"name": "AGAUUUG (DNA:RNA)", "RNA": "B5 RNA with C27A, G28U, A29U, C30U, U31G", "DNA 1": "CAATCTGAATTCCGGTCTCCC", "DNA 2": "TGGTGGCTACGACGGGATT"}, "B17": {"name": "UUGUACG (DNA:RNA)", "RNA": "B5 RNA with A25U, G26U, C27G, G28U, U31G", "DNA 1": "CAATCTGAATTCCGGTCTCCC", "DNA 2": "TGGTGGCTACGACGGGATT"}, "B18": {"name": "AGAGUAG (DNA:RNA)", "RNA": "B5 RNA with C27A, A29U, C30A, U31G", "DNA 1": "CAATCTGAATTCCGGTCTCCC", "DNA 2": "TGGTGGCTACGACGGGATT"}, "B19": {"name": "AUAGAUU (DNA:RNA)", "RNA": "B5 RNA with G26U, C27A, C30U", "DNA 1": "CAATCTGAATTCCGGTCTCCC", "DNA 2": "TGGTGGCTACGACGGGATT"}, "B20": {"name": "GUCGAUA (DNA:RNA)", "RNA": "B5 RNA with A25G, G26U, C30U, U31A", "DNA 1": "CAATCTGAATTCCGGTCTCCC", "DNA 2": "TGGTGGCTACGACGGGATT"}, "B21": {"name": "CUACGAA (DNA:RNA)", "RNA": "B1 RNA with G25C, U27A, U28C, U29G, G30A", "DNA 1": "CAATCTGAATTCCGGTCTCCC", "DNA 2": "TGGTGGCTACGACGGGATT"}, "B22": {"name": "GCCAACA (DNA:RNA)", "RNA": "B5 RNA with A25G, G26C, G28A, U31A", "DNA 1": "CAATCTGAATTCCGGTCTCCC", "DNA 2": "TGGTGGCTACGACGGGATT"}, "B23": {"name": "GCGGAUU (DNA:RNA)", "RNA": "B5 RNA with A25G, G26C, C27G, C30U", "DNA 1": "CAATCTGAATTCCGGTCTCCC", "DNA 2": "TGGTGGCTACGACGGGATT"}, "B24": {"name": "GCACUAA (DNA:RNA)", "RNA": "B1 RNA with U26C, U27A, U28C, G30A", "DNA 1": "CAATCTGAATTCCGGTCTCCC", "DNA 2": "TGGTGGCTACGACGGGATT"}, "B25": {"name": "ACCCCUA (DNA:RNA)", "RNA": "B5 RNA with G26C, G28C, A29C, C30U, U31A", "DNA 1": "CAATCTGAATTCCGGTCTCCC", "DNA 2": "TGGTGGCTACGACGGGATT"}, "B26": {"name": "AAUCGGA (DNA:RNA)", "RNA": "B1 RNA with G25A, U26A, U28C, U29G", "DNA 1": "CAATCTGAATTCCGGTCTCCC", "DNA 2": "TGGTGGCTACGACGGGATT"}, "B27": {"name": "ACGUGCC (DNA:RNA)", "RNA": "B5 RNA with G26C, C27G, G28U, A29G, U31C", "DNA 1": "CAATCTGAATTCCGGTCTCCC", "DNA 2": "TGGTGGCTACGACGGGATT"}, "B28": {"name": "CUCAUAA (DNA:RNA)", "RNA": "B1 RNA with G25C, U27C, U28A, G30A", "DNA 1": "CAATCTGAATTCCGGTCTCCC", "DNA 2": "TGGTGGCTACGACGGGATT"}, "B29": {"name": "GAGGUUU (DNA:RNA)", "RNA": "B5 RNA with A25G, G26A, C27G, A29U, C30U", "DNA 1": "CAATCTGAATTCCGGTCTCCC", "DNA 2": "TGGTGGCTACGACGGGATT"}, "B30": {"name": "CGACCUC (DNA:RNA)", "RNA": "B5 RNA with A25C, C27A, G28C, A29C, C30U, U31C", "DNA 1": "CAATCTGAATTCCGGTCTCCC", "DNA 2": "TGGTGGCTACGACGGGATT"}, "B31": {"name": "CAAAUUG (DNA:RNA)", "RNA": "B1 RNA with G25C, U26A, U27A, U28A, G30U, A31G", "DNA 1": "CAATCTGAATTCCGGTCTCCC", "DNA 2": "TGGTGGCTACGACGGGATT"}}, "note": "Residue numbers refer to the chain shown, from its start. The list shows a part of the results."}
{"molecular_target": "T1, RBFOX1 RRM (Homo sapiens, UniProt Q9NWB1 109-208)", "T1 sequence": "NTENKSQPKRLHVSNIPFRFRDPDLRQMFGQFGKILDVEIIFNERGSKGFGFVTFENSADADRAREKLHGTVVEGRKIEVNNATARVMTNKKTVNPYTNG", "test": "EMSA; HiTS-Eq, 1 nM pool, 10 min; buffer printed only for the single-RNA assays: 10 mM Tris pH 7.5, 150 mM NaCl, 3.4 mM EDTA, 0.001% NP-40, 30 C", "conditions": "tags: His6 N-terminal (pET28a); label: 5' 32P", "outline": "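Purified wild-type or mutant RbFox RRM at increasing concentrations was equilibrated with 1 nM of 5′-radiolabelled RNA carrying 7 randomized nucleotides for 10 min in 50 µL. Unbound RNA was separated by 8% native PAGE and sequenced. Relative association constants came from read-count changes of each RNA species compared with the control reaction, normalised to the cognate motif.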"}
{"binder": "B1", "binding signal": "0.0261 KA relative to UGCAUGU"}
{"binder": "B2", "binding signal": "0.0139 KA relative to UGCAUGU"}
{"binder": "B3", "binding signal": "0.00177 KA relative to UGCAUGU"}
{"binder": "B4", "binding signal": "0.0119 KA relative to UGCAUGU"}
{"binder": "B5", "binding signal": "0.00758 KA relative to UGCAUGU"}
{"binder": "B6", "binding signal": "0.00489 KA relative to UGCAUGU"}
{"binder": "B7", "binding signal": "0.00756 KA relative to UGCAUGU"}
{"binder": "B8", "binding signal": "0.0233 KA relative to UGCAUGU"}
{"binder": "B9", "binding signal": "0.0142 KA relative to UGCAUGU"}
{"binder": "B10", "binding signal": "0.0154 KA relative to UGCAUGU"}
{"binder": "B11", "binding signal": "0.00428 KA relative to UGCAUGU"}
{"binder": "B12", "binding signal": "0.00421 KA relative to UGCAUGU"}
{"binder": "B13", "binding signal": "0.0204 KA relative to UGCAUGU"}
{"binder": "B14", "binding signal": "0.0158 KA relative to UGCAUGU"}
{"binder": "B15", "binding signal": "0.00499 KA relative to UGCAUGU"}
{"binder": "B16", "binding signal": "0.0114 KA relative to UGCAUGU"}
{"binder": "B17", "binding signal": "0.0186 KA relative to UGCAUGU"}
{"binder": "B18", "binding signal": "0.0121 KA relative to UGCAUGU"}
{"binder": "B19", "binding signal": "0.00434 KA relative to UGCAUGU"}
{"binder": "B20", "binding signal": "0.0091 KA relative to UGCAUGU"}
{"binder": "B21", "binding signal": "0.00468 KA relative to UGCAUGU"}
{"binder": "B22", "binding signal": "0.00318 KA relative to UGCAUGU"}
{"binder": "B23", "binding signal": "0.0163 KA relative to UGCAUGU"}
{"binder": "B24", "binding signal": "0.00455 KA relative to UGCAUGU"}
{"binder": "B25", "binding signal": "0.00266 KA relative to UGCAUGU"}
{"binder": "B26", "binding signal": "0.00229 KA relative to UGCAUGU"}
{"binder": "B27", "binding signal": "0.0141 KA relative to UGCAUGU"}
{"binder": "B28", "binding signal": "0.00126 KA relative to UGCAUGU"}
{"binder": "B29", "binding signal": "0.022 KA relative to UGCAUGU"}
{"binder": "B30", "binding signal": "0.0075 KA relative to UGCAUGU"}
{"binder": "B31", "binding signal": "0.00423 KA relative to UGCAUGU"}
